Reference: PubChem BioAssay AID1345083 (National Center for Advancing Translational Sciences (NCATS), 2018)
Screen size: about 94,000 compounds; about 6,200 (6.6%) were called active. The shares of active, inactive and inconclusive entries below differ from those in the screen. Calls come from the whole dose curve; as a rule, active = well fitted inhibition curve with a large enough effect; inconclusive = small, poorly fitted or top-dose-only effect; inactive = flat fitted curve, though single readings scatter. Where the call is inconclusive, the potency comes from a doubtful curve fit.
% is set by controls: 0 for no effect and ±100 for the full control effect; potency is the fitted concentration of half-maximal effect; tags give direction and shape of the fitted curve.

Assay: Cytotoxic Profiling in HEK 293 Cell Line of Diverse Libraries Using Quantitative High-Throughput Screening; note: nearly all actives have a fitted effect of over 60% in size
Settings: HEK 293 viability, ATP luminescence (CellTiter-Glo), 48-72 h; activity change, negative = cytotoxicity: at 115 µM (top of the series) unless noted; series mostly up to 115 µM
Summary of the method: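 Pintool-delivered compounds were incubated with HEK 293 cells (250 cells/well) at 37 degree Celsius for 48 or 72 hr. ATP-dependent luminescence (CellTiter-Glo) then reported remaining viable cells.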
In the case of O=C(NCc1ccncc1)[C@@H]1C[C@@H](c2ccc(F)cc2)N(CCOc2ccccc2)C1, the Potency is reported as inconclusive: 100 µM [inhibitor, partial curve, poor fit].
For Fc1ccccc1-c1noc(-c2nc(C3CC3)no2)n1, the Potency was inconclusive: 50.1 µM [inhibitor, partial curve, poor fit].
In the case of COc1cccc(-c2ccc(CN3CCCC(NC(=O)c4ccccn4)C3)cc2)c1 (configuration not stated), the Potency is reported as active: 25.1 µM.
For CN1C(=O)CCC2(CNC(=O)c3ccco3)CCC=C12 (configuration not stated), the “outcome” value was “inactive”.
For COCCN1CCC(CN(CC2CCCO2)C(=O)c2cccc(C#CC(C)(C)O)c2)CC1 (configuration not stated), the “activity change, negative = cytotoxicity” value was inactive: -20.4%.
For O=c1c2nc(NCCOc3ccccc3)ccc2ncn1Cc1ccccc1, the Potency was inconclusive: 112 µM [inhibitor, partial curve, poor fit].
In the case of Cc1ccccc1CNC(=O)c1cc2cn(C(C)C)cc2s1, the Potency is reported as inconclusive: 56.2 µM [inhibitor, partial curve, poor fit].
With COCCNC(=O)C1CCN(C(=O)c2ccc(-c3cncnc3)cc2)CC1 the “activity change, negative = cytotoxicity” value was inactive: 0.954%.
For CN1c2cc(C(=O)NCc3ccc(Cl)cc3)ccc2C(=O)N2CCCCC21 (configuration not stated), the Potency was inconclusive: 50.1 µM [inhibitor, partial curve, poor fit].
For O=[S+]1([O-])NC2(CCN(Cc3ccc(C(F)(F)F)cc3)C2)COc2ncccc21 (configuration not stated), the Potency was inconclusive: 79.4 µM [inhibitor, partial curve, poor fit].
In the case of CCCCCC(=O)Nc1nc2c(s1)C[C@@H]1[C@](C)(CO)[C@H](O)CC[C@@]1(C)[C@@H]2CC(=O)NC1CCCC1, the “activity change, negative = cytotoxicity” value is reported as inactive: -18.1%.
With COCc1noc([C@@H]2CC(F)(F)CN2C(=O)C2CCC2)n1 the “activity change, negative = cytotoxicity” value was inactive: -2%.
With O=C(NCc1ccc2c(c1)OCO2)c1nc(-c2ccccc2)c2ccccn12 the “activity change, negative = cytotoxicity” value was inactive: -25.3%.
For COC[C@H]1C[C@@H](NC(=O)C2CCCC2)[C@H](O)[C@@H]1O, the “activity change, negative = cytotoxicity” value was inactive: 4.94% [at 230 µM].
In the case of O=C(c1ccc(F)c(F)c1)N1CCC(n2cc(-c3nc(-c4ccccc4)no3)nn2)CC1, the Potency is reported as inconclusive: 50.1 µM [inhibitor, partial curve, poor fit].
For CCC1c2nccn2CCCN1C(=O)COc1cccc(C)c1 (configuration not stated), the “activity change, negative = cytotoxicity” value was inactive: -15.2%.
With COc1ccc2c(c1)CN(CC1CCCCC1)CC[C@H]1COC(=O)N21 the Potency was inconclusive: 112 µM [inhibitor, partial curve, poor fit].
In the case of O=[S+]1([O-])NC2(CCN(Cc3cccc4ccccc34)CC2)CNc2ccccc21, the Potency is reported as active: 39.8 µM.
With COc1cccc(CC(=O)N2CCC(c3n[nH]c(=O)n3-c3ccc(C)cc3)CC2)c1 the “activity change, negative = cytotoxicity” value was inactive: -0.303%.
In the case of COc1cc(NC(=O)N[C@H](C)c2onc(-c3ccccc3)c2C(=O)O)cc(OC)c1, the “activity change, negative = cytotoxicity” value is reported as inactive: -10.5% [at 172 µM].
With O=C1NCCOCCN(C(=O)c2ccncc2)[C@H]2CCC[C@@H]12 the “outcome” value was “inactive”.
In the case of O=C(C1CC1)N1CCCC1C(=O)N1CCCC1c1nc2ccncc2[nH]1 (configuration not stated), the “activity change, negative = cytotoxicity” value is reported as inactive: -1.06%.
With CN(C1CCOCC1)C1CCN(C(=O)c2ccc(Cl)cc2)CC1 the Potency was inconclusive: 89.1 µM [inhibitor, single point].
In the case of Cc1cccc2c1nc1n2[C@@H](CNC2CCC2)COC1, the Potency is reported as inconclusive: 79.4 µM [inhibitor, full curve, poor fit].
In the case of O=C(Cc1c[nH]c2ncc(-c3cccnc3)cc12)N1CCN(c2ccccn2)CC1, the Potency is reported as inconclusive: 100 µM [inhibitor, partial curve].
For O=C(CC1CCCCN(Cc2ccccc2)C1=O)NC1CCCCCC1 (configuration not stated), the Potency was inconclusive: 50.1 µM [inhibitor, partial curve, poor fit].
With O=C(Cc1c[nH]c2ncc(-c3ccccc3)cc12)Nc1cccnc1 the Potency was active: 70.8 µM.
With CCN(Cc1ccccc1)C(=O)c1cc2c(N3CCCC3)nc(C)cn2n1 the Potency was inconclusive: 25.1 µM [inhibitor, partial curve, poor fit].
In the case of NC1CC(c2cc(N3CCN(c4nnc(C(F)(F)F)s4)CC3)ncn2)C1 (configuration not stated), the Potency is reported as inconclusive: 50.1 µM [inhibitor, partial curve, poor fit].
With O=C(Cc1c[nH]c2ncc(-c3cccnc3)cc12)NC1CCC1 the Potency was inconclusive: 63.1 µM [inhibitor, full curve, poor fit].
For COc1cccc(CN2CCNc3cnc(Nc4ccccc4)cc3C2)c1, the Potency was active: 89.1 µM.
In the case of O=C(NC1CCCC1)N1CC(Oc2cccc(-c3nc(-c4ccccc4)no3)c2)C1, the Potency is reported as inconclusive: 31.6 µM [inhibitor, full curve, poor fit].
With Cc1onc(C(=O)NCCc2noc(-c3ccncc3)n2)c1Cn1cc(Cl)cn1 the Potency was inconclusive: 28.2 µM [inhibitor, partial curve].
With COc1ccc(F)cc1-c1cccc(C(=O)NCCNC(=O)C(C)(C)C)c1 the Potency was inconclusive: 50.1 µM [inhibitor, partial curve, poor fit].
For Cc1ccc(-c2cn3cc(C(=O)NCC4CC4)nc3s2)cc1, the “activity change, negative = cytotoxicity” value was inactive: -3.96%.
With O=C(NC1CCN(c2cc(-c3cccs3)[nH]n2)C1)c1ccc2[nH]ccc2c1 (configuration not stated) the Potency was inconclusive: 89.1 µM [inhibitor, single point].
With COc1ccccc1-c1ccc(CN2CCC(NC(=O)Cc3ccccn3)C2)cc1 (configuration not stated) the Potency was inconclusive: 56.2 µM [inhibitor, partial curve, poor fit].
With CC(C)n1cc(CN2CCC(CO)(Cc3ccccc3Cl)CC2)cn1 the “activity change, negative = cytotoxicity” value was inactive: -19.4%.
For CN1C(=O)CCC2(CNC(=O)c3cccs3)CCC=C12 (configuration not stated), the Potency was inconclusive: 39.8 µM [inhibitor, partial curve, poor fit].
For Cc1ccc(-c2cc3c(=O)n(CCNC(=O)C4CCCCC4)ccn3n2)c(C)c1, the Potency was inconclusive: 50.1 µM [inhibitor, partial curve, poor fit].
With O[C@H]1[C@H](NCc2ccccn2)[C@H]2CO[C@H](O2)[C@@H]1N1CCN(c2ccccc2)CC1 the “activity change, negative = cytotoxicity” value was inactive: -15.7% [at 172 µM].
In the case of CS(=O)(=O)c1ccc(CN2CCC[C@H]2c2nc(-c3ccc(-c4ccncc4)nc3)no2)cc1, the Potency is reported as inconclusive: 79.4 µM [inhibitor, single point].
In the case of O=C(NCc1cccnc1)[C@@H]1C[C@@H](O)CN1C1CCN(C(=O)c2ccsc2)CC1, the “outcome” value is reported as “inactive”.
With COc1ccccc1C(=O)N1CCC2(CC1)CN[S+](=O)([O-])c1cccnc1O2 the “outcome” value was “inactive”.
In the case of COCCN1CCCCCC(O)c2cc(C(=O)NCc3ccc(F)cc3)ccc21 (configuration not stated), the Potency is reported as inconclusive: 89.1 µM [inhibitor, partial curve, poor fit].
With CCc1ccc(C(=O)N2CCC(Cc3nc(-c4ccc(F)cc4)no3)CC2)cc1 the Potency was inconclusive: 89.1 µM [inhibitor, partial curve, poor fit].
For O=C(C1CCOCC1)N1CCC(c2noc(-c3ccccn3)n2)C1 (configuration not stated), the “activity change, negative = cytotoxicity” value was inactive: 3.97%.
In the case of O=C(NCC1CCCO1)C1CCN(C(=O)c2ncn3c2COC(c2ccc(F)cc2)C3)CC1 (configuration not stated), the “activity change, negative = cytotoxicity” value is reported as inactive: -1.81%.
With COc1cc(OC)cc(C(=O)NC2CCN(c3cc(-c4ccc(F)cc4)[nH]n3)C2)c1 (configuration not stated) the Potency was inconclusive: 44.7 µM [inhibitor, partial curve, poor fit].
For O=C(CC1CCCC1)N1CCC(c2nc(C3CCOCC3)no2)CC1, the Potency was inconclusive: 79.4 µM [inhibitor, partial curve, poor fit].
In the case of COc1cccc([S+](=O)([O-])N2CCn3cc(C(=O)Nc4ccc(Cl)cc4Cl)nc3C2)c1, the Potency is reported as inconclusive: 79.4 µM [inhibitor, single point].
For CN(C)C(=O)c1ccc(OC2CCN(C(=O)C3CCCCC3)CC2)nc1, the Potency was inconclusive: 70.8 µM [inhibitor, single point].
In the case of COc1ccccc1-c1cc(-c2cn[nH]c2)c2onc(C)c2n1, the Potency is reported as inconclusive: 89.1 µM [inhibitor, partial curve].
With COc1ccc(C(=O)Nc2ccc(-c3noc([C@@H]4CCCN4Cc4c[nH]c5ccccc45)n3)cn2)cc1 the Potency was inconclusive: 17.8 µM [inhibitor, full curve, poor fit].
With CC(C)NC(=O)c1cnc2c(c1)N(C(=O)Cc1cccc(C(F)(F)F)c1)CCC2 the “activity change, negative = cytotoxicity” value was inactive: -16.2% [at 172 µM].
With CC(C)Oc1cccc(-c2nc(C(=O)NCc3ccc(F)cc3)cs2)c1 the Potency was inconclusive: 89.1 µM [inhibitor, single point].
With CC1(C)[C@H]2CC[C@@H](CNC(=O)c3ccc4c(c3)OCO4)[C@@H]1C2 the Potency was inconclusive: 112 µM [inhibitor, partial curve, poor fit].
In the case of O=C(c1ccc(N2CC3CC(C2)[C@H]2CCCC(=O)N2C3)nc1)N1CCN(c2cccc(Cl)c2)CC1 (some centres not stated), the Potency is reported as inconclusive: 50.1 µM [inhibitor, partial curve, poor fit].
In the case of COc1cncc(Nc2cnc3ccc(-c4ccc(OC)c(OC)c4)nn23)c1, the Potency is reported as active: 63.1 µM.
For O=C(C1CC1)N1CCc2nc(-c3ccc(Cl)cc3)nc(-c3ccccc3)c2C1, the Potency was active: 39.8 µM.
In the case of COc1cccc(-c2cc(C(=O)N(C)CC#N)c3cnn(C)c3n2)c1, the Potency is reported as inconclusive: 89.1 µM [inhibitor, single point].
With CC(C)Oc1cccc(-c2nnc(CCC(=O)NCCOc3ccccc3)c(=O)[nH]2)c1 the “activity change, negative = cytotoxicity” value was inactive: -8.89%.
With O=C(NC1CCCc2c1[nH]c1ccc(F)cc21)c1ccc(Br)o1 (configuration not stated) the Potency was inconclusive: 35.5 µM [inhibitor, partial curve, poor fit].
With CNC(=O)c1cc(C2CC2)nc2c1c(C1CCCN1C(=O)c1ccccc1)nn2C (configuration not stated) the “activity change, negative = cytotoxicity” value was inactive: -3.91%.
For O=C(Cc1cccc(F)c1)NCc1nnc2cc(-c3nc(C4CC4)no3)ccn12, the “activity change, negative = cytotoxicity” value was inactive: -19.4%.
In the case of CN(C)C(=O)N1CCN(c2nccc(Nc3ccccc3Cl)n2)CC1, the Potency is reported as inconclusive: 14.1 µM [inhibitor, full curve, poor fit].
In the case of NC(=O)[C@@H]1CN(Cc2ccco2)C[C@H]1COc1ccccc1, the “activity change, negative = cytotoxicity” value is reported as inactive: -3.18%.
